According to the supplement of paper PMC8728848:
The other results are listed elsewhere or left out.

Experiments:
Assay in all cases: glycan array binding signal (z-score within array); higher = stronger binding
Conditions in all cases: glycan notation: IUPAC condensed, linker removed
[1] = target: Fuc(a1-2)[Gal(a1-3)]Gal(b1-4)GlcNAc(b1-2)Man(a1-3)[Fuc(a1-2)[Gal(a1-3)]Gal(b1-4)GlcNAc(b1-2)Man(a1-6)]Man(b1-4)GlcNAc(b1-4)[Fuc(a1-6)]GlcNAc
Method in brief: (§1)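 Glycan array data were curated from 3228 arrays in the Consortium for Functional Glycomics database and kept only where the protein sequence was available. Glycan names were converted to IUPAC-condensed notation, and columns mapping to the same glycan were averaged. The binding signal is a within-array Z-score, averaged across arrays of the same protein sequence at different concentrations or buffers and across linkers. Negative Z-scores can be read as non-binding.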

[2] = target: Fuc(a1-2)[Gal(a1-3)]Gal(b1-4)GlcNAc(b1-3)GalNAc
Method in brief: as §1

[3] = target: Fuc(a1-2)[Gal(a1-3)]Gal(b1-4)GlcNAc(b1-3)[Fuc(a1-2)[Gal(a1-3)]Gal(b1-4)GlcNAc(b1-6)]GalNAc
Method in brief: as §1

[4] = target: Fuc(a1-2)[Gal(a1-3)]Gal(b1-4)GlcNAc(b1-6)GalNAc
Method in brief: as §1

[5] = target: Fuc(a1-2)[Gal(a1-3)]Gal(b1-4)[Fuc(a1-3)]Glc
Method in brief: as §1

[6] = target: Fuc(a1-2)[Gal(a1-3)]Gal(b1-4)[Fuc(a1-3)]GlcNAc
Method in brief: as §1

[7] = target: Fuc(a1-2)[Gal(a1-3)]Gal(b1-4)[Fuc(a1-3)]GlcNAc(b1-3)GalNAc
Method in brief: as §1

[8] = target: Fuc(a1-2)[Gal(a1-4)]Gal(b1-4)GlcNAc
Method in brief: as §1

[9] = target: Fuc(a1-2)[GalNAc(a1-3)]Gal
Method in brief: as §1

[10] = target: Fuc(a1-2)[GalNAc(a1-3)]Gal(b1-3)GalNAc(a1-3)[Fuc(a1-2)]Gal(b1-4)GlcNAc
Method in brief: as §1

[11] = target: Fuc(a1-2)[GalNAc(a1-3)]Gal(b1-3)GalNAc(b1-3)Gal(a1-4)Gal(b1-4)Glc
Method in brief: as §1

[12] = target: Fuc(a1-2)[GalNAc(a1-3)]Gal(b1-3)GlcNAc
Method in brief: as §1

[13] = target: Fuc(a1-2)[GalNAc(a1-3)]Gal(b1-3)GlcNAc(b1-2)Man(a1-3)[Fuc(a1-2)[GalNAc(a1-3)]Gal(b1-3)GlcNAc(b1-2)Man(a1-6)]Man(b1-4)GlcNAc(b1-4)GlcNAc
Method in brief: as §1

[14] = target: Fuc(a1-2)[GalNAc(a1-3)]Gal(b1-3)GlcNAc(b1-2)Man(a1-3)[Fuc(a1-2)[GalNAc(a1-3)]Gal(b1-3)GlcNAc(b1-2)Man(a1-6)]Man(b1-4)GlcNAc(b1-4)[Fuc(a1-6)]GlcNAc
Method in brief: as §1

[15] = target: Fuc(a1-2)[GalNAc(a1-3)]Gal(b1-3)GlcNAc(b1-3)GalNAc
Method in brief: as §1

[16] = target: Fuc(a1-2)[GalNAc(a1-3)]Gal(b1-3)GlcNAc(b1-6)GalNAc
Method in brief: as §1

[17] = target: Fuc(a1-2)[GalNAc(a1-3)]Gal(b1-4)Glc
Method in brief: as §1

[18] = target: Fuc(a1-2)[GalNAc(a1-3)]Gal(b1-4)GlcNAc
Method in brief: as §1

[19] = target: Fuc(a1-2)[GalNAc(a1-3)]Gal(b1-4)GlcNAc(b1-2)Man
Method in brief: as §1

[20] = target: Fuc(a1-2)[GalNAc(a1-3)]Gal(b1-4)GlcNAc(b1-2)Man(a1-3)[Fuc(a1-2)[GalNAc(a1-3)]Gal(b1-4)GlcNAc(b1-2)Man(a1-6)]Man(b1-4)GlcNAc(b1-4)GlcNAc
Method in brief: as §1

[21] = target: Fuc(a1-2)[GalNAc(a1-3)]Gal(b1-4)GlcNAc(b1-2)Man(a1-3)[Fuc(a1-2)[GalNAc(a1-3)]Gal(b1-4)GlcNAc(b1-2)Man(a1-6)]Man(b1-4)GlcNAc(b1-4)[Fuc(a1-6)]GlcNAc
Method in brief: as §1

[22] = target: Fuc(a1-2)[GalNAc(a1-3)]Gal(b1-4)GlcNAc(b1-3)Gal(b1-4)GlcNAc
Method in brief: as §1

[23] = target: Fuc(a1-2)[GalNAc(a1-3)]Gal(b1-4)GlcNAc(b1-3)Gal(b1-4)GlcNAc(b1-3)Gal(b1-4)GlcNAc
Method in brief: as §1

[24] = target: Fuc(a1-2)[GalNAc(a1-3)]Gal(b1-4)GlcNAc(b1-3)GalNAc
Method in brief: as §1

[25] = target: Fuc(a1-2)[GalNAc(a1-3)]Gal(b1-4)GlcNAc(b1-3)[Fuc(a1-2)[GalNAc(a1-3)]Gal(b1-4)GlcNAc(b1-6)]GalNAc
Method in brief: as §1

[26] = target: Fuc(a1-2)[GalNAc(a1-3)]Gal(b1-4)GlcNAc(b1-6)GalNAc
Method in brief: as §1

[27] = target: Fuc(a1-2)[GalNAc(a1-3)]Gal(b1-4)[Fuc(a1-3)]GlcNAc
Method in brief: as §1

[28] = target: Fuc(a1-2)[GalNAc(a1-3)]Gal(b1-4)[Fuc(a1-3)]GlcNAc(b1-3)GalNAc
Method in brief: as §1

[29] = target: Fuc(a1-2)[GalNAc(a1-4)]Gal(b1-4)GlcNAc
Method in brief: as §1

[30] = target: Fuc(a1-2)[GalNAc(b1-3)]Gal
Method in brief: as §1

B1: Clone730PsrP (Streptococcus pneumoniae) (protein)
chain: MDHHHHHHHHHHASENLYFQGAMVVGSQTAAATEATAKKVEEDRKKPASDYVASVTNVNLQSYAKRRKRSVDSIEQLLASIKNAAVFSGNTIVNGAPAINASLNIAKSETKVYTGEGVDSVYRVPIYYKLKVTNDGSKLTFTYTVTYVNPKTNDLGNISSMRPGYSIYNSGTSTQTMLTLGSDLGKPSGVKNYITDKNGRQVLSYNTSTMTTQGSGYTWGNGAQMNGFFAKKGYGLTSSWTVPITGTDTSFTFTPYAARTDRIGINYFNGGGKVVESSTT
- glycan array binding signal (z-score) [1]: -0.453
- glycan array binding signal (z-score) [2]: -0.574
- glycan array binding signal (z-score) [3]: 0.84
- glycan array binding signal (z-score) [4]: -0.367
- glycan array binding signal (z-score) [5]: -0.546
- glycan array binding signal (z-score) [6]: 0.179
- glycan array binding signal (z-score) [7]: -0.513
- glycan array binding signal (z-score) [8]: 1.7
- glycan array binding signal (z-score) [9]: -0.384
- glycan array binding signal (z-score) [10]: -0.462
- glycan array binding signal (z-score) [11]: 0.106
- glycan array binding signal (z-score) [12]: 1.49
- glycan array binding signal (z-score) [13]: -0.426
- glycan array binding signal (z-score) [14]: -0.573
- glycan array binding signal (z-score) [15]: 0.137
- glycan array binding signal (z-score) [16]: -0.628
- glycan array binding signal (z-score) [17]: -0.55
- glycan array binding signal (z-score) [18]: -0.464
- glycan array binding signal (z-score) [19]: -0.091
- glycan array binding signal (z-score) [20]: -0.234
- glycan array binding signal (z-score) [21]: 2.17
- glycan array binding signal (z-score) [22]: -0.179
- glycan array binding signal (z-score) [23]: 0.462
- glycan array binding signal (z-score) [24]: -0.167
- glycan array binding signal (z-score) [25]: -0.331
- glycan array binding signal (z-score) [26]: -0.529
- glycan array binding signal (z-score) [27]: 0.983
- glycan array binding signal (z-score) [28]: 0.059
- glycan array binding signal (z-score) [29]: -0.48
- glycan array binding signal (z-score) [30]: -0.3
